Laboratory results reported in PubChem BioAssay AID1479 (National Center for Advancing Translational Sciences (NCATS), 2009).
About 820 (0.29%) of roughly 280,000 compounds were called active. This list was built around the results that the source calls inconclusive (neither active nor inactive); the mix of calls is not that of the screen. Calls follow the shape of the dose curve; as a rule, active = well fitted curve in either direction with a large enough effect; inconclusive = small, poorly fitted or top-dose-only effect; inactive = flat fitted curve, though single readings scatter. No potency is given beside an inconclusive call; the fits are too rough.

Experiment: Total Fluorescence Counterscreen for Inhibitors of the Interaction of Thyroid Hormone Receptor and Steroid Receptor Coregulator 2
Details: TRb/SRC2 Texas Red total fluorescence interference; series mostly up to 106 µM; fluorescence change, negative = quenching: at the top concentration
Summary of the method: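 Human TRb ligand-binding domain at 0.6 uM with 20 nM Texas Red SRC2 peptide in Tris buffer containing 1 uM T3 and 5% DMSO, incubated with compound 5 h at ambient temperature. Total fluorescence (555/632 nm) calculated as parallel + 2 × perpendicular.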
% is scaled to controls: 0 for no effect and ±100 for the full control effect; potency is read from the fitted curve at half-maximal effect; tags tell the direction and shape of the fitted curve or compound fluorescence and quenching.

Row | SMILES | Potency | fluorescence change, negative = quenching
1 | CCOC(=O)/C(C#N)=c1/s/c(=C2\C=Cc3ccccc3N2CC)c(=O)n1CC | inconclusive [rising, single point] | 
2 | CC1CCN(S(=O)(=O)c2nnc(NC(=O)c3cccc(Cl)c3)s2)CC1 | inconclusive [falling, full curve, poor fit] | 
3 | Clc1ccccc1-c1nnc(COc2ccccc2)o1 | inconclusive [falling, full curve, poor fit] | 
4 | Cc1[nH]c2ccccc2c1/C=N/Nc1ccc([N+](=O)[O-])cc1S(=O)(=O)Nc1ccc(Cl)cc1 |  | inactive: -1.03%
5 | CSc1ncc(C(=O)Nc2ccc(C)c(Cl)c2)c(-c2ccccc2)n1 | inconclusive [quencher, full curve] | 
6 | CC1=C(C(=O)OCC2CCCCC2)C(c2ccc(Cl)cc2)CC(=O)N1 (stereo not drawn) |  | inactive: -2.17%
7 | CC(=O)c1ccc(NC(=O)CSc2nc(N)c3cc4c(nc3n2)CCCC4)cc1 | active: 89.1 µM [quencher] | 
8 | COc1ccc(-n2cc(C(=O)NCCc3cc(OC)ccc3OC)c3ccccc3c2=O)cc1 |  | inactive: -6.25%
9 | Cc1ccc(C)c(CN2C(=O)C(O)(c3c(C)[nH]c4ccccc34)c3ccccc32)c1 (stereo not drawn) | inconclusive [falling, full curve, poor fit] | 
10 | CCCN(CCC)CCCNC(=O)C1CCCN(Cc2nc(-c3ccc(Cl)cc3)oc2C)C1 (stereo not drawn) | inconclusive [falling, full curve, poor fit] | 
11 | COCCNC(=O)C1CCN(C(=O)c2cc3sccc3n2Cc2ccc(Cl)cc2)CC1 | active: 28.2 µM [quencher] | 
12 | COc1ccc2nc(-c3ccco3)c(-c3ccco3)nc2c1 | inconclusive [quencher, partial curve] | 
13 | CCOC(=O)c1c(C)[nH]c(C)c1S(=O)(=O)N1CCC(C(=O)Nc2ccc(OCC)cc2)CC1 |  | inactive: 0.398%
14 | CCSc1ncc(Cl)c(C(=O)Nc2nc3ccc(S(C)(=O)=O)cc3s2)n1 | active: 35.5 µM [quencher] | 
15 | CCCCNC(=O)CSc1nc2cc3c(cc2c(=O)n1CCCC(=O)NCCc1ccc(OC)c(OC)c1)OCO3 | inconclusive [falling, partial curve, poor fit] | 
16 | Brc1ccc2[nH]c3c(c2c1)CCC3 |  | inactive: -1.37%
17 | O=C(C1CCN(c2ncnc3c2nc2n3CCCCC2)CC1)N1CCN(c2ccccc2F)CC1 | inconclusive [quencher, full curve] | 
18 | CCSc1ncc(Cl)c(C(=O)Nc2nnc(CC)s2)n1 | inconclusive [falling, full curve, poor fit] | 
19 | COc1ccc(NC(=O)CCNS(=O)(=O)c2ccc3c(c2)CCCC(=O)N3)cc1Cl | inconclusive [falling, partial curve, poor fit] | 
20 | Cc1nn(CC(=O)Nc2ccc(OC(F)(F)F)cc2)c(=O)c2c(C)n(-c3ccc(Cl)cc3)nc12 |  | inactive: -1.3%
21 | COc1cccc(-c2nc(CS(=O)(=O)CC(=O)N3CCN(c4cc(C)ccc4C)CC3)c(C)o2)c1 | inconclusive [quencher, partial curve] | 

Row | SMILES | Potency | fluorescence change, negative = quenching
22 | CCCCn1cnc2cc(NCc3ccccc3Cl)ccc21 | active: 0.0631 µM [quencher] | 
23 | O=C1/C(=C\c2cccnc2)CCc2ccccc21 |  | inactive: -3.03%
24 | Cc1cc(C)cc(NC(=O)N2CCC(CN3CCOCC3)CC2)c1 | inconclusive [quencher, full curve] | 
25 | CC1=C(C(=O)NCc2cccc(F)c2)C2(CCCCC2)OC1=O | inconclusive [quencher, full curve] | 
26 | Cc1ccc(-c2cc3ncc4c(n3n2)-c2cc(F)ccc2OC4)cc1 | active: 25.1 µM [quencher] | 
27 | Cc1cccc(NC(=O)CCn2cnc3ccccc3c2=O)c1 | inconclusive [quencher, full curve] | 
28 | CCOC(=O)c1noc2ncn(CC(=O)Nc3cccc(C(F)(F)F)c3)c(=O)c12 |  | inactive: -3.77%
29 | CCOc1ccc(NC(=O)N2CCN(c3nnc(C)c4c(C)n(-c5ccccc5)nc34)CC2)cc1 | active: 0.0005 µM [quencher] | 
30 | O=C(CCSCc1ccccc1F)N1CCN(c2ccc(Cl)cc2)CC1 |  | inactive: -2.62%
31 | Cc1ccc(CN(C(=O)COc2ccc(C(C)C)cc2)C2CCS(=O)(=O)C2)o1 (stereo not drawn) | inconclusive [falling, partial curve, poor fit] | 
32 | N#Cc1ccccc1Cn1c(=O)n(CCCCC(=O)NCc2ccc3c(c2)OCO3)c(=O)c2ccccc21 | inconclusive [falling, full curve, poor fit] | 
33 | CN(C)C(=O)c1ccc(-c2nc(Nc3ccncc3)c3ccccc3n2)cc1 |  | inactive: -0.606%
34 | COc1ccc2c(c1)-c1nc(NC(=O)c3ccccc3F)sc1CC2 | inconclusive [falling, full curve, poor fit] | 
35 | CC/C(=C/c1sc2ccc(C)cc2[n+]1CCCS(=O)(=O)[O-])SC | active: 44.7 µM [fluorescent] | 
36 | Cc1ccc(Cn2cc(/C=C(/C#N)C(=O)Nc3cccc(Cl)c3)c3ccccc32)cc1 | inconclusive [falling, partial curve, poor fit] | 
37 | O=c1cc(-c2ccccc2)nc2cc(-c3ccc(F)cc3)[nH]n12 | inconclusive [falling, partial curve, poor fit] | 
38 | Cc1nnc(SCc2nc(-c3ccc(Cl)cc3)no2)n1-c1ccc(F)cc1 | inconclusive [falling, partial curve, poor fit] | 
39 | N#Cc1ccccc1NC(=O)COC(=O)CCc1ccc(S(=O)(=O)N2CCCCC2)cc1 | inconclusive [falling, partial curve, poor fit] | 
40 | COC(=O)/C=C/c1cccc([C@H]2[C@@H]3C=CC[C@@H](C)[C@@H]3C(=O)N2Cc2ccccc2)c1 | inconclusive [falling, full curve, poor fit] | 
41 | Cc1ccc(N=Cc2cc(Cc3ccccc3Cl)cc([N+](=O)[O-])c2O)c(O)c1 | inconclusive [quencher, partial curve] | 
42 | O=C(Nc1nnc(S(=O)(=O)N2CCN(c3ccc(F)cc3)CC2)s1)c1ccc(Cl)cc1 | inconclusive | 

Row | SMILES | Potency | fluorescence change, negative = quenching
43 | Cc1ccc(Cl)cc1NC(=O)COCc1cc(-c2ccco2)on1 | inconclusive [quencher, full curve] | 
44 | Cc1cccn2c(=O)c3cc(C(=O)NCCc4ccccc4)c(=N)n(CCCn4ccnc4)c3nc12 | inconclusive [quencher, partial curve] | 
45 | CC1(C)O[C@H]2O[C@@H]([C@H](O)CON3C(=O)c4ccccc4C3=O)[C@H](O)[C@H]2O1 |  | inactive: 1.18% [at 11.2 µM]
46 | Cc1ccc(NS(=O)(=O)c2cc([N+](=O)[O-])ccc2NNC(=S)Nc2cccc(Cl)c2)c(C)c1 | inconclusive [falling, partial curve, poor fit] | 
47 | COc1ccccc1CCc1nnc(CCC(=O)NCCOc2cccnc2)o1 |  | inactive: -4.89%
48 | COc1cc(-c2ccc(N=Nc3ccc4c(S(=O)(=O)O)cc(S(=O)(=O)O)c(N)c4c3O)c(OC)c2)ccc1N=Nc1ccc2c(S(=O)(=O)O)cc(S(=O)(=O)O)c(N)c2c1O | active: 15.8 µM [fluorescent] | 
49 | CCN(/N=C/C=C/c1ccccc1)c1cc(=O)n(C)c(=O)[nH]1 | inconclusive [falling, partial curve, poor fit] | 
50 | CCCN(CC(=O)Nc1ccccc1C)C(=O)/C=C/c1cccs1 | inconclusive [quencher, partial curve] | 
51 | N#CC1=C2SCN(c3ccccc3)CN2C(=O)CC1c1cccs1 (stereo not drawn) | inconclusive [quencher, full curve] | 
52 | CC(=O)c1c(NC(=O)c2ccccc2)[nH]c(-c2ccccc2)nc1=S | inconclusive [rising, full curve, poor fit] | 
53 | COc1ccc(COc2cc(-c3cccc(OC)c3)nc3ccc(NC(=O)c4ccccc4)cc23)cc1 | inconclusive [falling, partial curve, poor fit] | 
54 | Cc1ccc(C)n1-c1c(C(=O)NCCCN2CCN(c3ccc(F)cc3)CC2)sc2ncccc12 |  | inactive: -3.57%
55 | COc1ccc(-c2cn3nc(N4CCC(C(=O)Nc5cccc(OC)c5)CC4)sc3n2)cc1 | inconclusive [quencher, full curve] | 
56 | COc1cc(OC)cc(C(=O)NNC(=O)Cc2ccc(OC)c(S(=O)(=O)N3CCOCC3)c2)c1 | inconclusive [quencher, partial curve] | 
57 | O=S(=O)(c1cccs1)N1CN(Cc2ccco2)c2nc3ccccc3nc21 | inconclusive [fluorescent, partial curve] | 
58 | CCCC(=O)Nc1ccc(NC(=O)c2sc3ccccc3c2Cl)cc1 | active: 1.26 µM [quencher] | 
59 | CC1CN(C(=O)N2CCC(C(=O)NCCC3=CCCCC3)CC2)c2ccccc2O1 (stereo not drawn) | inconclusive [falling, full curve, poor fit] | 
60 | CN1CCc2c(sc3c2C(=O)NC(c2cccs2)N3)C1 (stereo not drawn) | active: 44.7 µM [fluorescent] | 
61 | CCOC(=O)c1[nH]c2ccc(OC)cc2c1NC(=O)/C=C/c1ccc2c(c1)OCO2 |  | inactive: 3.05%
62 | O[C@@H]1COC2[C@@H](O)CO[C@@H]21 (stereo partly drawn) | inconclusive [falling, full curve, poor fit] | 
63 | CCc1ccc2occ(CC(=O)Nc3c(C(=O)Nc4ccc(Cl)cc4)oc4ccccc34)c2c1 | inconclusive [quencher, partial curve] | 
